Measured values as given in paper PMC4336329 (PLoS ONE, 2015).
Out of some 310,000 compounds screened, about 14,000 (4.5%) showed an effect of 50% or more. The effect is printed as a negative number. The list shows a part of the results.

target: human ether-à-go-go-related gene (hERG) potassium channel (human, UniProt Q12809); assay: primary screen, population patch clamp on CHO cells stably expressing hERG
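Further: peak tail current of the secondary pulse compared with the same well before compound.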

Chain of human ether-à-go-go-related gene (hERG) potassium channel (Q12809 whole entry, looked up): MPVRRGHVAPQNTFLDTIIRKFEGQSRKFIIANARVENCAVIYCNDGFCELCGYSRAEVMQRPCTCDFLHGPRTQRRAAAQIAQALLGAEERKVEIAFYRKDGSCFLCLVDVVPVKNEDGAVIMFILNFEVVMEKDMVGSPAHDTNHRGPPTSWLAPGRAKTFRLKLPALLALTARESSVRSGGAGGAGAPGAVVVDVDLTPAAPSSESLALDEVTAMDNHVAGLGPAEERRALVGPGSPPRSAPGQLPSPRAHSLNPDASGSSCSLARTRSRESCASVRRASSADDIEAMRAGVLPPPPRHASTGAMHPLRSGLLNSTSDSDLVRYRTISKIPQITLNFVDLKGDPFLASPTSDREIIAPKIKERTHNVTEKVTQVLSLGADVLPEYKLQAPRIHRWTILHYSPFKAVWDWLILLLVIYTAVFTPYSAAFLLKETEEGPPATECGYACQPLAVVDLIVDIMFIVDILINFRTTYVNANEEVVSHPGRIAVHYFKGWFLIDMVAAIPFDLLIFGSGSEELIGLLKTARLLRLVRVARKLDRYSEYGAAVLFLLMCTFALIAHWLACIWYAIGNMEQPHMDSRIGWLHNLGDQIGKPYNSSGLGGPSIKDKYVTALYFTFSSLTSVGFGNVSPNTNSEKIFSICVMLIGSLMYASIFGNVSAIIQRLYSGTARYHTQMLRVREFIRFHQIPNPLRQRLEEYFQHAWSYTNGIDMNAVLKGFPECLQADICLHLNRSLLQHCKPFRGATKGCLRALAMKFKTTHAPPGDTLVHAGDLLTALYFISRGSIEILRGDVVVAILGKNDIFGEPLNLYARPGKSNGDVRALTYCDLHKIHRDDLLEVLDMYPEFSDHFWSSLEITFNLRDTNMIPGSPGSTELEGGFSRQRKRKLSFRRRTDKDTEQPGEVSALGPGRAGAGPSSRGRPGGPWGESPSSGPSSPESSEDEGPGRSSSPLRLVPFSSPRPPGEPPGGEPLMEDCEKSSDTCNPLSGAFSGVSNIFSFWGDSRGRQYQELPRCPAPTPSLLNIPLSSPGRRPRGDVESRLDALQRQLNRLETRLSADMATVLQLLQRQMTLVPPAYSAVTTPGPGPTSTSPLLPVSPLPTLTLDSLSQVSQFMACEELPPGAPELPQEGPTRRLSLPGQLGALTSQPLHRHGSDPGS

Structure (SMILES) | hERG current change (%, negative = inhibition) at 10uM [%]
O=C(c1ccc(Cl)cc1)C1CCCN(Cc2cccc3cnccc23)C1 (centres unmarked) | -44.8
CCNC(=S)N1CCN(CC(=O)Nc2ccc(OC)cc2)CC1 | -34.3
CCN(C(=O)c1cc(Cl)ccc1Cl)C1CCS(=O)(=O)C1 (centres unmarked) | -13.8
O=c1c2ccccc2nc(SCc2nc3ccccc3s2)n1Cc1ccco1 | 18
Cc1cc(C)cc(NC(=O)C2CCN(S(=O)(=O)c3ccc4[nH]c(=O)ccc4c3)CC2)c1 | -8.87
Cc1ccn2cc(CNS(=O)(=O)c3ccc4ccccc4c3)nc2c1 | 1.8
CCc1nc(C)cn1S(=O)(=O)c1cc(Cl)c(OC)cc1Cl | -0.954
CCCC1(c2ccccc2)NC(=O)N(CC(=O)Nc2cc(OC)cc(OC)c2)C1=O (centres unmarked) | 8.48
Cc1ccccc1CCNCc1ccc(Br)cc1 | -53.6
CC(/C=N/n1cnnc1)=C\c1ccccc1 | -5.4
CCN(C(=O)COC(=O)c1cc(C)oc1C)c1c(N)n(Cc2ccccc2)c(=O)[nH]c1=O | 9.02
CCOC(=O)C1CCN(C(=O)Cn2cnc3sc(C)c(S(=O)(=O)N4CCC(C)CC4)c3c2=O)CC1 | -67.9
CCC1CCCCN1C(=O)c1cc2c(=O)n3cccc(C)c3nc2s1 (centres unmarked) | 4.01
COCCn1c(SCC(=O)Nc2nnc(C)s2)nnc1-c1c[nH]c2ccccc12 | -10.6
CS(=O)(=O)N1CCC(C(=O)N2CCN(C(c3ccccc3)c3ccccc3)CC2)CC1 | -0.257
Cc1ccc(-c2cc(N)n(-c3ccccc3)n2)cc1 | 9.36
COc1ccc(CNCCc2ccc3c(c2)OCO3)cc1Br.O=C(O)C(=O)O | -50.5
CCc1ccc(CNC(=O)C2CCN(S(=O)(=O)N3CCC4(CC3)OCCO4)CC2)cc1 | -4.12
CC(=O)NNS(=O)(=O)c1ccc(-c2cc(C(F)(F)F)n(C)n2)s1 | -0.0144
O=C(Nc1ccc(F)cc1)Nc1nnc(-c2ccccc2)o1 | -0.0939
O=C(COc1ccc2c3c(c(=O)oc2c1)CCC3)N1CCCCC1 | 3.84
CSc1ccccc1C(=O)NC1CCCCCC1 | 6.76

Structure (SMILES) | hERG current change (%, negative = inhibition) at 10uM [%]
Cc1ccc(NC(=O)CN(C)C(=O)c2ccc(C(F)(F)F)cc2)cc1 | 7.17
CCOC(=O)c1ccccc1NC(=O)Cc1c(C(=O)O)n(C)c2ccccc12 | 5.03
CC1c2cc3c(cc2CCN1C(=O)c1ccc(Br)cc1)OCCCO3 (centres unmarked) | -41
Cc1cc2oc3ccc(NCCCn4ccnc4)cc3c(=O)c2cc1C | 6.32
Nc1nonc1-c1nc2ccccc2n1Cc1ccc(F)cc1Cl | 4.91
Cn1c(-c2ccc(C(=O)c3ccccc3)s2)nc2ccccc21 | 11.5
Clc1ccccc1Nc1nc2ccccc2o1 | 10.5
Cn1ccc(C(=O)Oc2ccc(C(=O)Nc3ccc(F)cc3F)cc2)n1 | 12.5
CCOC(=O)c1ccc(NS(=O)(=O)N2CCCCCC2)cc1 | -10
O=C(CN1C(=O)C2CCCCC2C1=O)Nc1nc(-c2ccccn2)cs1 (centres unmarked) | -0.211
CC1CCN(C(=O)COC(=O)c2cc([N+](=O)[O-])ccc2N2CCOCC2)CC1 | -15
CCOC(=O)c1c(NC(=O)C2=C(C)NC(=S)NC2c2ccc(F)cc2F)sc(C)c1C (centres unmarked) | -5.84
O=C(Cc1cccs1)Nc1ccc([N+](=O)[O-])cc1 | 4.02
Cc1cccc(C)c1NC(=O)CN(C)C(=O)COc1cccc2c1OC(C)(C)C2 | 11.5
CC(=O)N1CCCc2cc(S(=O)(=O)N3CCCC(C(=O)Nc4ccccc4C)C3)ccc21 (centres unmarked) | 10.9
Cc1ccc(C(=O)CC2(O)C(=O)N(CN3CCOCC3)c3ccccc32)cc1 (centres unmarked) | -2.38
O=c1oc2ccccc2c2c1ncn2CCN1CCOCC1 | -8.76
CCOC(=O)c1ccc(S(=O)(=O)n2c(CN3CCCCC3)nc3ccccc32)cc1 | 12.9
CSc1ccc(-c2sc(Nc3ccccc3)n[n+]2-c2ccc(F)cc2)cc1.[Cl-] | 1.55
COc1ccc(NC(=S)Nc2ccc3cn[nH]c3c2)cc1 | -11.9
CC1(C(=O)O)CCC(C(=O)Nc2ccc(Cl)c(Cl)c2)C1(C)C (centres unmarked) | 13
C=CCc1cc(Cl)ccc1OCCCNC(C)CC.O=C(O)C(=O)O (centres unmarked) | -55.7
